# Laboratory results from paper PMC12136788.
# Substitutions are numbered along the chain they refer to. This is one part of the list.
# B1: chr1:156742365:156742464:-|3pUTR|ENSG00000143321|msi1_unk|total|mutant (ssRNA)
# RNA: GGGAGUUCUACAGUCCGACGAUCAUUUCUGAGGUGCACUGGGAGGCUCCCCUUCUAUUUGGGGCUUGAUGACUUUCUUUUUGCCGCUGGGGCUUUGAUGUUCCUUCCAGUGUCAUUUCUCAUCCACAUACCCUGACCUGGCCCCAACAGAGGAUUGAGCAUCA
# B2: chr4:177430861:177430962:-|3pUTR|ENSG00000038002|msi1|total|mutant (ssRNA)
# RNA: GGGAGUUCUACAGUCCGACGAUCUUUACUAAUUCCUUGUGCAGAGGUGGGUAUGGCAAUCCGAAGUCAAGAAAUGGGUUGUUCCGCUUGGUUUGUUUCCCUAACUUCUGAUUAACUCUCUGUAUGACAACUCUACAGAAGUUGCAACAGAGGAUUGAGCAUCA
# B3: chr4:138171112:138171219:-|3pUTR|ENSG00000151012|msi1|FALSE|unique (ssRNA)
# RNA: GGGAGUUCUACAGUCCGACGAUCUUUUUUUUUUUCACAUCAGUUUGAUCAGGAAAGUGUAUAACACAUCUUAGAGCAAGAGUUAGUUUGGUAUUAAAUCCUCAUUAGAACAACCACCUGUUUCACUAAUAACUUACCCCUGAUCAACAGAGGAUUGAGCAUCA
# B4: chr11:69651622:69651678:+|3pUTR|ENSG00000110092|msi1_unk|FALSE|overlapping (ssRNA)
# RNA: GGGAGUUCUACAGUCCGACGAUCUUAUACCCCAAUAAUCAACUCGUUUUUAUAUUAAUGUACUUGUUUCUCUGUUGUAAGAAUAGGCAUUAACACAAAGGAGGCGUCUCGGGAGAGGAUUAGGUUCCAUCCUUUACGUGUUUACAACAGAGGAUUGAGCAUCA
# B5: chr6:87085629:87085739:-|3pUTR|ENSG00000135346|unk|FALSE|unique (ssRNA)
# RNA: GGGAGUUCUACAGUCCGACGAUCGUUUUACCAAGUGCUGUCUUGAUGACUGCUGAUUUUCUGGAAUGGAAAAUUAAGUUGUUUAGUGUUUAUGGCUUUGUGAGAUAAAACUCUCCUUUUCCUUACCAUACCACUUUGACACGCCAACAGAGGAUUGAGCAUCA
# B6: chr17:78853230:78853302:-|3pUTR|ENSG00000035862|msi1_unk|total|mutant (ssRNA)
# RNA: GGGAGUUCUACAGUCCGACGAUCCUCUUCUCCUAUUUUCAUCCUGCAAGCAACUCAAAAUAUUUAAAAUAAAGUUUACAUUGCCGUUAUUUUCAAAUCUUUGCUUGAUAAGUAUUAAGAAAUAUUGGACUUGCUGCCGUAAUUCAACAGAGGAUUGAGCAUCA
# B7: chr6:52791370:52791857:-|three_prime_utr|ENSG00000243955|control|control|control (ssRNA)
# RNA: GGGAGUUCUACAGUCCGACGAUCGCUAAUGAACUCUUUCAAAUUAUAUGCUAAUUAAAUAAUACAACUCCUAUUCGCUGACUUAGUUAAAAUUGAUUUGUUUUCAUUAGGAUCUGAUGUGAAUUCAGAUUUCCAAUCUUCUCCCAACAGAGGAUUGAGCAUCA
# B8: chr1:178442813:178442920:+|CDS|ENSG00000075391|unk|FALSE|unique (ssRNA)
# RNA: GGGAGUUCUACAGUCCGACGAUCAAAGCAGACAAUAUUUUCUGGGGCGAACAUUUUGAAUUCUUCAGCCUUCCACCUCUUCAUAGUAUCACAGUUCACAUUUACAAGGAUGUGGAAAAAAAGAAAAAAAAGGACAAGAAUAAUCAACAGAGGAUUGAGCAUCA
# B9: chr1:117959336:117959438:+|CDS|ENSG00000065183|unk|total|mutant (ssRNA)
# RNA: GGGAGUUCUACAGUCCGACGAUCGAUUAUCUCAAGAGGGAAUGCGAGGCAAAAAGUGAAGUUAUGUUUUUUGCUGAUGCUACCCGCCACUUGGAAGAGAAGAAGAGGAAGAGGAAAAAGAGGGAGAAGUUGAUUCUAACGUUGCAACAGAGGAUUGAGCAUCA
# B10: chr4:177430861:177430962:-|3pUTR|ENSG00000038002|msi1|FALSE|unique (ssRNA)
# RNA: B2 RNA with C60U, C61A, C83U, C84A
# B11: chr15:34978960:34979061:-|3pUTR|ENSG00000198146|msi1|total|mutant (ssRNA)
# RNA: GGGAGUUCUACAGUCCGACGAUCGCCCUCUGUAUCCAUGUACUCUGCAUCUGUGGAUUAAACCAAUUGCAGAUCAAAAAUAUCCGAAAAAAUAAAAAUAAUACAAAUAAAAAUACAGUAUAACAGUUAUUUAAACCGCAUUUACAACAGAGGAUUGAGCAUCA
# B12: chr19:41432845:41433434:-|three_prime_utr|ENSG00000105341|control|control|control (ssRNA)
# RNA: GGGAGUUCUACAGUCCGACGAUCGCCCAGGCACCUCUCCCACCUAACCCAGAUGCAGGAGAGGAAGUGGGGAGGGGCAAUGUUAGGCAGUUCUCAUAUCCCCCUGCAUCCAUCACAAACCUAGAGUAUUUAUGGUAGAUGAGCCAACAGAGGAUUGAGCAUCA
# B13: chr2:30910466:30910900:-|three_prime_utr|ENSG00000158089|control|control|control (ssRNA)
# RNA: GGGAGUUCUACAGUCCGACGAUCUCCUUUUCCUACAAAGGAAGCAGUCUCUGGAGGCCAGAAAGAAAAGCCUUCUUUUUCACUAGGCCAGGACUACAUUGAGAGAUGAAGAAUGGAGGUUGUUUCCAAAAGAAAUAAAGAGAACAACAGAGGAUUGAGCAUCA
# B14: ENSG00000124766:be:win_3851|3pUTR|ENSG00000124766|bound_else_gene|NA|bound_elsewhere_windowed (ssRNA)
# RNA: GGGAGUUCUACAGUCCGACGAUCUCCGUUAAGGGUUUUUGUUUUUAAACUUUUUUUUGCCAUCCAUCCUGUGCAAUAUGCCGUGUAGAAUAUUUGUCUUAAAAUUCAAGGCCACAAAAACAAUGUUUGGGGGAAAAAAAAGAACAACAGAGGAUUGAGCAUCA
# Biological target: MSI1 full-length (mouse, UniProt Q61474 1-362)
# UniProt Q61474, sequence (Q61474 whole entry): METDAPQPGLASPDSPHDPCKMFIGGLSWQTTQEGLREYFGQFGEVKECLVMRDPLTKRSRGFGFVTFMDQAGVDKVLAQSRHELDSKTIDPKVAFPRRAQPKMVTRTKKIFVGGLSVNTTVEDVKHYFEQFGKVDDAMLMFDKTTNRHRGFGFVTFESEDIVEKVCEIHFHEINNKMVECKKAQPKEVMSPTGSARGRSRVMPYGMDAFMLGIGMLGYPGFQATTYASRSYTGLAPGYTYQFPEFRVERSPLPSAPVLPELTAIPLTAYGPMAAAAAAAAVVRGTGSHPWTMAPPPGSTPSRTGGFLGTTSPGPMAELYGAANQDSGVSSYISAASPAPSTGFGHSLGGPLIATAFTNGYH
# Experiment: nsRBNS (natural sequence RNA bind-n-seq); RBNS binding buffer (assumed for nsRBNS): 25 mM Tris pH 7.5, 150 mM KCl, 3 mM MgCl2, 0.01% Triton X-100, 500 ug/ml BSA, 20 U/ml SUPERase-In, 4 C; UNK is unkempt and MSI1 is Musashi-1; names of the RNAs are library labels; protein concentration not given here; high values mean tight binding
row,Binder,binding signal [enrichment R]
1,B1,0.353
2,B2,0.375
3,B3,10.8
4,B4,1.75
5,B5,0.459
6,B6,0.841
7,B7,4.6
8,B8,0.844
9,B9,0.524
10,B10,0.6
11,B11,2.16
12,B12,3.97
13,B13,0.297
14,B14,0.715
